Data reported in a collection of fitness landscapes (doi:10.1038/s41467-024-54723-y).
In all, about 18,000 sequences were measured (“TetR repression strength (sort-seq, GFP reporter)”: median about 0.23, highest 2% from about 0.68 on). The list shows a part of the results.

molecular target: TetR (class B, Tn10) (UniProt P04483); assay: TetR repression strength (sort-seq, GFP reporter) (relative to tetO2 = 1); higher = stronger repression; conditions: E. coli
Procedure, shortened: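 Three independent transformations of E. coli SIG10-MAX were made with a low-copy plasmid library randomizing eight operator positions between a constitutive promoter and sfGFP, with constitutive TetR. Following 5 h at 37 °C in LB plus 50 µg/mL chloramphenicol, 10^6 cells went through FACS into 13 fluorescence bins, and each bin was sequenced by Illumina. Repression strength was defined as the top bin index plus one minus the read-weighted mean bin, divided by the unaltered operator's value. Averages included only members reaching ≥30 reads in all replicates with a CV ≤0.5.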

UniProt P04483, sequence (P04483 whole entry): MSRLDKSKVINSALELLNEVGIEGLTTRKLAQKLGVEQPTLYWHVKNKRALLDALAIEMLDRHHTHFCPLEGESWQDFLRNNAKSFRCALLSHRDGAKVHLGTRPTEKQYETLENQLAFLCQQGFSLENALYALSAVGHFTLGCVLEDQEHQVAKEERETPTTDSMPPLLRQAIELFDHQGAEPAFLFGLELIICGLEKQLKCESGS

| Sequence | TetR repression strength |
| --- | --- |
| TCCCCCCCAGTTGGGGAGA | 0.523 |
| TCCCAGGGAGTGGTTGAGA | 0.648 |
| TCCCCAGCAGTGAATGAGA | 0.346 |
| TCCCAACGAGTCTGGGAGA | 0.186 |
| TCCCGGGCAGTAATCGAGA | 0.121 |
| TCCCCAGAAGTGCCAGAGA | 0.0748 |
| TCCCTAACAGTTGTAGAGA | 0.156 |
| TCCCGCAAAGTAATGGAGA | 0.518 |
| TCCCTTGAAGTAGGTGAGA | 0.116 |
| TCCCGGGGAGTACAGGAGA | 0.319 |
| TCCCATGTAGTTGCCGAGA | 0.295 |
| TCCCAGTAAGTCGTGGAGA | 0.182 |
| TCCCATCCAGTCAATGAGA | 0.0518 |
| TCCCAGTCAGTGGTCGAGA | 0.249 |
| TCCCTAGTAGTACATGAGA | 0.0537 |
| TCCCCTTTAGTATGGGAGA | 0.237 |
| TCCCCATGAGTGTGGGAGA | 0.275 |
| TCCCTTAGAGTAAGCGAGA | 0.225 |
| TCCCAATTAGTAATCGAGA | 0.136 |
| TCCCGACTAGTCAGAGAGA | 0.236 |
| TCCCTAAAAGTGGATGAGA | 0.0992 |
| TCCCGAATAGTACGAGAGA | 0.498 |
| TCCCAAGTAGTATGGGAGA | 0.175 |
| TCCCGTCCAGTGTGTGAGA | 0.22 |
| TCCCGGTGAGTGAGTGAGA | 0.315 |
| TCCCGTCAAGTTGAGGAGA | 0.236 |

| Sequence | TetR repression strength |
| --- | --- |
| TCCCTGGGAGTGGGGGAGA | 0.138 |
| TCCCGTCTAGTCTTGGAGA | 0.212 |
| TCCCAACTAGTAAAAGAGA | 0.358 |
| TCCCACGTAGTTGAGGAGA | 0.136 |
| TCCCGCCTAGTAAGCGAGA | 0.294 |
| TCCCCTGAAGTCCAGGAGA | 0.138 |
| TCCCGATAAGTGATAGAGA | 0.733 |
| TCCCGATAAGTGGCCGAGA | 0.171 |
| TCCCGGTGAGTCTGGGAGA | 0.254 |
| TCCCGTACAGTTTCAGAGA | 0.244 |
| TCCCTGTCAGTGTACGAGA | 0.286 |
| TCCCGGCTAGTACATGAGA | 0.365 |
| TCCCACGAAGTATCGGAGA | 0.161 |
| TCCCAAACAGTTAGCGAGA | 0.16 |
| TCCCCGCCAGTTGGCGAGA | 0.16 |
| TCCCGGGCAGTGATGGAGA | 0.427 |
| TCCCCGAAAGTCATAGAGA | 0.452 |
| TCCCTGGTAGTGGTTGAGA | 0.282 |
| TCCCTAAAAGTTGTAGAGA | 0.0907 |
| TCCCGTTAAGTTAGCGAGA | 0.247 |
| TCCCGGGGAGTAAGTGAGA | 0.224 |
| TCCCCGTGAGTACAGGAGA | 0.239 |
| TCCCTAGGAGTCCTGGAGA | 0.487 |
| TCCCAGTGAGTGGGGGAGA | 0.201 |
| TCCCCAGCAGTTGATGAGA | 0.136 |
| TCCCGTGTAGTGGGGGAGA | 0.275 |

| Sequence | TetR repression strength |
| --- | --- |
| TCCCGCTTAGTACCGGAGA | 0.233 |
| TCCCGGGTAGTATCCGAGA | 0.274 |
| TCCCAGCGAGTGGACGAGA | 0.461 |
| TCCCCCTAAGTGGTGGAGA | 0.159 |
| TCCCAGGCAGTTAATGAGA | 0.426 |
| TCCCAACAAGTAAACGAGA | 0.104 |
| TCCCAGCGAGTCGTTGAGA | 0.144 |
| TCCCAGTGAGTAGTTGAGA | 0.149 |
| TCCCTTTCAGTGTCTGAGA | 0.352 |
| TCCCGGTAAGTTTGAGAGA | 0.4 |
| TCCCCTCAAGTTATAGAGA | 0.311 |
| TCCCCTGCAGTGGGCGAGA | 0.272 |
| TCCCTCTCAGTTATCGAGA | 0.603 |
| TCCCGCGCAGTGGTCGAGA | 0.353 |
| TCCCAATGAGTTATGGAGA | 0.388 |
| TCCCTCTCAGTACTAGAGA | 0.283 |
| TCCCCATAAGTTCAGGAGA | 0.323 |
| TCCCAATAAGTTAGAGAGA | 0.0864 |
| TCCCTTACAGTAGGCGAGA | 0.245 |
| TCCCGCGTAGTTGTTGAGA | 0.402 |
| TCCCTTGTAGTGCCGGAGA | 0.516 |
| TCCCGTCGAGTACATGAGA | 0.141 |
| TCCCAAAGAGTAGGGGAGA | 0.125 |
| TCCCCGTCAGTGGGGGAGA | 0.328 |
| TCCCTGCAAGTACCTGAGA | 0.308 |
| TCCCTAGGAGTGATAGAGA | 0.52 |

| Sequence | TetR repression strength |
| --- | --- |
| TCCCCCGGAGTCTTGGAGA | 0.176 |
| TCCCGACGAGTATGTGAGA | 0.173 |
| TCCCTTGCAGTTGTAGAGA | 0.15 |
| TCCCTAGCAGTATGGGAGA | 0.0462 |
| TCCCTTCAAGTGACTGAGA | 0.444 |
| TCCCTTCGAGTTAGGGAGA | 0.549 |
| TCCCCTTGAGTACGCGAGA | 0.203 |
| TCCCGTCGAGTGTGTGAGA | 0.138 |
| TCCCTTGGAGTAGGTGAGA | 0.0675 |
| TCCCTTCCAGTGTTGGAGA | 0.561 |
| TCCCTGTGAGTAGTGGAGA | 0.183 |
| TCCCGCATAGTGTGTGAGA | 0.301 |
| TCCCAGAAAGTGTTAGAGA | 0.299 |
| TCCCGTCTAGTAGAGGAGA | 0.213 |
| TCCCATATAGTGTGTGAGA | 0.267 |
| TCCCGGTTAGTGAACGAGA | 0.207 |
| TCCCCCAGAGTTTGTGAGA | 0.302 |
| TCCCATGGAGTTCGAGAGA | 0.0732 |
| TCCCACATAGTCGAGGAGA | 0.328 |
| TCCCTTACAGTTGATGAGA | 0.291 |
| TCCCACGGAGTCTGGGAGA | 0.0855 |
| TCCCTCGAAGTGTGCGAGA | 0.248 |
| TCCCCCCCAGTCGAGGAGA | 0.0963 |
| TCCCTCAAAGTGGGGGAGA | 0.066 |
| TCCCTCTAAGTGGTGGAGA | 0.163 |
| TCCCCGTTAGTCGGGGAGA | 0.207 |

| Sequence | TetR repression strength |
| --- | --- |
| TCCCCATAAGTCCTGGAGA | 0.231 |
| TCCCTAACAGTCAACGAGA | 0.31 |
| TCCCTCGAAGTTCAAGAGA | 0.359 |
| TCCCGGGCAGTTGGGGAGA | 0.323 |
| TCCCTTGGAGTTGAGGAGA | 0.465 |
| TCCCGTGAAGTGGTGGAGA | 0.548 |
| TCCCATCGAGTTGCAGAGA | 0.0504 |
| TCCCAGAGAGTATCCGAGA | 0.274 |
| TCCCAGAGAGTGTGAGAGA | 0.26 |
| TCCCACTAAGTGAGAGAGA | 0.361 |
| TCCCCAGCAGTAAGGGAGA | 0.227 |
| TCCCGCTTAGTCACGGAGA | 0.257 |
| TCCCGACAAGTTGTTGAGA | 0.15 |
| TCCCCATGAGTGTTGGAGA | 0.199 |
| TCCCTGTGAGTGTCAGAGA | 0.169 |
| TCCCTGTCAGTGAGGGAGA | 0.272 |
| TCCCTAAGAGTCTTAGAGA | 0.441 |
| TCCCAGGCAGTTAGGGAGA | 0.077 |
| TCCCACGGAGTATTTGAGA | 0.194 |
| TCCCGGCAAGTCAATGAGA | 0.205 |
| TCCCGGCGAGTAGTGGAGA | 0.188 |
| TCCCAAGGAGTACTCGAGA | 0.135 |
| TCCCTGTCAGTGATGGAGA | 0.523 |
| TCCCCAGGAGTTGTGGAGA | 0.578 |
| TCCCGACAAGTGATGGAGA | 0.304 |
| TCCCATCGAGTCACAGAGA | 0.341 |

| Sequence | TetR repression strength |
| --- | --- |
| TCCCGTACAGTTTGTGAGA | 0.314 |
| TCCCACTTAGTTCGTGAGA | 0.245 |
| TCCCAGATAGTGGATGAGA | 0.0745 |
| TCCCCCGGAGTCGGGGAGA | 0.17 |
| TCCCGATTAGTGGAGGAGA | 0.179 |
| TCCCATGAAGTAGCGGAGA | 0.282 |
| TCCCATTTAGTAAAGGAGA | 0.149 |
| TCCCAGATAGTAAGCGAGA | 0.171 |
| TCCCGACGAGTAGCCGAGA | 0 |
| TCCCGGGTAGTTACTGAGA | 0.123 |
| TCCCTTAAAGTCCGAGAGA | 0.291 |
| TCCCATTTAGTGTGCGAGA | 0.0814 |
| TCCCGATTAGTTATTGAGA | 0.351 |
| TCCCGTGAAGTTCGGGAGA | 0.579 |
| TCCCAAGGAGTCGTGGAGA | 0.327 |
| TCCCCGAAAGTGGCCGAGA | 0.0544 |
| TCCCCCTAAGTAGGTGAGA | 0.49 |
| TCCCACTCAGTTTCTGAGA | 0.378 |
| TCCCTTTGAGTTCACGAGA | 0.232 |
| TCCCTTGGAGTGAGTGAGA | 0.237 |
| TCCCAGGGAGTGTATGAGA | 0.169 |
| TCCCATCCAGTGCTTGAGA | 0.267 |
| TCCCTAACAGTACTGGAGA | 0.104 |
| TCCCTGCCAGTCCTTGAGA | 0.354 |
| TCCCTATCAGTAATTGAGA | 0.787 |
| TCCCCACGAGTGCGGGAGA | 0.194 |

| Sequence | TetR repression strength |
| --- | --- |
| TCCCCAGAAGTATTCGAGA | 0.193 |
| TCCCGACCAGTGATAGAGA | 0.662 |
| TCCCACTTAGTCGGCGAGA | 0.16 |
| TCCCGTTAAGTAGGAGAGA | 0.125 |
| TCCCCCTCAGTGTGAGAGA | 0.401 |
| TCCCTGAGAGTCAAGGAGA | 0.446 |
| TCCCATGTAGTAGTGGAGA | 0.292 |
| TCCCGGGGAGTTACAGAGA | 0.903 |
| TCCCGGCCAGTTGAGGAGA | 0.132 |
| TCCCTCTTAGTAGGCGAGA | 0.0406 |
| TCCCCGTGAGTGCAAGAGA | 0.408 |
| TCCCTTCAAGTGGAGGAGA | 0.346 |
| TCCCAACGAGTGCGCGAGA | 0.413 |
| TCCCTGGCAGTGAGAGAGA | 0.356 |
| TCCCGGATAGTAGTAGAGA | 0.49 |
| TCCCTGTCAGTGGGCGAGA | 0.184 |
| TCCCCATGAGTAGTCGAGA | 1.03 |
| TCCCGCGAAGTGCAGGAGA | 0.379 |
| TCCCATACAGTCGGTGAGA | 0.186 |
| TCCCAGTTAGTCTAGGAGA | 0.143 |
| TCCCTTAAAGTTTTGGAGA | 0.269 |
| TCCCGTTAAGTTTCTGAGA | 0.302 |
| TCCCAGGGAGTACGGGAGA | 0.167 |
| TCCCTCTCAGTTCGTGAGA | 0.181 |
| TCCCGTCGAGTATCGGAGA | 0.14 |
| TCCCAAGAAGTGAGGGAGA | 0.0518 |

| Sequence | TetR repression strength |
| --- | --- |
| TCCCTATGAGTACGAGAGA | 0.291 |
| TCCCTGAAAGTACGGGAGA | 0.236 |
| TCCCGCGAAGTGGCCGAGA | 0.0629 |
| TCCCCCCAAGTGCAAGAGA | 0.607 |
| TCCCAGGTAGTGAGGGAGA | 0.233 |
| TCCCCAATAGTACGGGAGA | 0.157 |
| TCCCCGTGAGTGGGGGAGA | 0.263 |
| TCCCGATCAGTTGTTGAGA | 0.398 |
| TCCCGTGCAGTAAACGAGA | 0.326 |
| TCCCCTGGAGTAGTCGAGA | 0.235 |
| TCCCAAGGAGTTGGAGAGA | 0.103 |
| TCCCGTACAGTACAGGAGA | 0.181 |
| TCCCATCCAGTATGAGAGA | 0.077 |
| TCCCCAGGAGTCCGTGAGA | 0.301 |
| TCCCGTTGAGTTTCTGAGA | 0.744 |
| TCCCAGGGAGTCTATGAGA | 0.126 |
| TCCCGTCTAGTAGCAGAGA | 0.634 |
| TCCCAGGTAGTTAGAGAGA | 0.198 |
| TCCCTGCAAGTGTTGGAGA | 0.165 |
| TCCCTACCAGTAACGGAGA | 0.0744 |
| TCCCTGGGAGTCCGCGAGA | 0.24 |
| TCCCAGATAGTAGATGAGA | 0.137 |
